Assay results: the supplement of paper PMC11417369
± gives the standard deviation of the averaged measurements. The list shows a part of the results.

The sequences below were run on PfAP2-I AP2 domain 3 (GST-tagged) (assay: gcPBM binding intensity (ln(normalized median fluorescence intensity)); higher = stronger DNA binding).
Summary of the method: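 The binding buffer was 1× PBS containing 1% milk, 0.2 mg/ml BSA, 0.5% salmon testes DNA and 0.03% Triton X-100. In it, GST-tagged P. falciparum DNA-binding domains expressed in E. coli were applied for 1 h to an Agilent 4 × 180k array of primer-extended double-stranded 36-bp intergenic genomic probes plus negative controls. Binding intensity, read with Alexa488 anti-GST antibody and a 488 nm scan, is the highest Masliner-normalised natural-log median intensity across replicate spots of either probe orientation.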

Row | Sequence | gcPBM binding intensity (ln)
1 | GTAAAAATTTCATATTCACACACAAAAAAAAAAAAT [CACACA_site8457] | 7.84 ± 0.43
2 | TTACTAAACTTATATGTACACACATATAACATTAAT [CACACA_site8710] | 8.18 ± 0.34
3 | AGTAGTCTGGAGAAGAGTACATAGTATCTGATAACC [XGTACX_site2044] | 7.88 ± 0.67
4 | AAGAATTTTACAAAATGTACTTATGTTTTGTTTTAC [XGTACX_site5632] | 7.49 ± 0.6
5 | TGGGAATAACGACACACACACACACGGATATAAATA [CACACA_site7633] | 8 ± 0.43
6 | TGATTATCCTATATATATTTCATAATGGAAAAAAAT [TGCATGCA_negctrl_site444] | 7.64 ± 0.45
7 | AATGTGGTATTTACAAAAAGGCTTTATACTTAAAAA [XGTACX_negctrl_site566] | 7.83 ± 0.5
8 | AAAAATAGTCTTCTTGCACTTTTTAATTTATTTTAA [CACACA_negctrl_site1322] | 9.135 ± 0.035
9 | TATATTTTGTTTTTGTGTACATATTGGTAGTTATTT [XGTACX_site7659] | 7.97 ± 0.36
10 | CTTTTCATCTTCTTAACACACAAAAAAAAAAAAAAA [CACACA_site3886] | 8.17 ± 0.54
11 | AAGAAAATATAACAAAGTAAAAACATATTATATATA [TGCATGCA_negctrl_site248] | 7.34 ± 0.34
12 | TATATATATTTTTGAAGTACTTATTACACTAGCATT [XGTACX_site8965] | 8.12 ± 0.54
13 | AAAAACGATTAATGTGTACACACATAGTTATAAACA [CACACA_site8659] | 7.89 ± 0.54
14 | TTTTTTTTTTTTTAATGTACAAATATGGTGACAAAA [XGTACX_site8709] | 8.19 ± 0.46
15 | ATATATATATATATATGTACATATATTTTCTTTTTG [XGTACX_site6017] | 9.44 ± 0.61
16 | TTGTTCTATAATTATACATGCATTAACAGAGTAAAA [TGCATGCA_site909] | 8.59 ± 0.56
17 | AGGATAACATACAAAAGTACATAAAACTAAAAAAAC [XGTACX_site26] | 8 ± 0.57
18 | TTTATTAAACTTGACACACACACACCCACATATATA [CACACA_site760] | 8.305 ± 0.078
19 | ATATTATATAGAAACACACATACACATGTAAATATA [CACACA_site2037] | 7.75 ± 0.67
20 | ATCTTATATTATCACACACACACGCACAAAACAGAA [CACACA_site1463] | 8.64 ± 0.4
21 | ATATAGAAAATGCATACACACTTTATATATATATTT [CACACA_site4658] | 7.68 ± 0.6
22 | TAATTATTTCGTATATTTGAATGGTACATGCTTATA [CACACA_negctrl_site1178] | 7.61 ± 0.26

Row | Sequence | gcPBM binding intensity (ln)
23 | ATGGATTTTACCATAGCACACATATATGAATATTTT [CACACA_site8535] | 7.96 ± 0.54
24 | AATGTGCTCGCTATTACACACTCATTGGGATAAAAT [CACACA_site8627] | 7.99 ± 0.59
25 | AGTAACAATTATTATGCATGTACAAATAATCATTTT [TGCATGCA_site867] | 7.86 ± 0.57
26 | AAAATTCAGCGAAAGGGTACATATGTGTAAGGGTAA [XGTACX_site8205] | 8.59 ± 0.77
27 | TATATTTATATACCAACACACATACATATTTATATA [CACACA_site6931] | 7.58 ± 0.42
28 | CTATTATATCAGTAGACACACATATAACATTTATAT [CACACA_site141] | 8.01 ± 0.3
29 | ATATAAAAAAAAAAAAAAAAATATATATATATATAT [GTGCAC_negctrl_site251] | 9.47 ± 0.29
30 | TTGGTTTGAAAGAAAGAAATTATTAAAAAGGAAATA [CACACA_negctrl_site26] | 7.67 ± 0.54
31 | GATATACTGTCAATTCTACACACCATAGGGGGAGCA [CACACA_site8562] | 9.2 ± 0.13
32 | TACTGATCCACATTTATACACACCTCGGTTTGTAGA [CACACA_site417] | 7.75 ± 0.49
33 | ATATATATATATACAACACACATGTAATATATAAAT [CACACA_site3294] | 9.34 ± 0.28
34 | TATAGATTCTTTTAATGTACATGTCTTTTCATTTCC [XGTACX_site8348] | 7.74 ± 0.69
35 | TTTTTAAATATATAATAGAATTGATTGTATTATATA [CACACA_negctrl_site196] | 7.3 ± 0.25
36 | GTATGAAAAAAAATATGTACACATATATATTTGGTA [XGTACX_site6309] | 7.75 ± 0.53
37 | TTGTGTTCTTATTTTTACACCGAAAAATATTAAAAG [CACACA_negctrl_site535] | 8.14 ± 0.35
38 | CCTTTATACATTTTCTGTACTGATATATATTAAAAA [XGTACX_site8467] | 8.1 ± 0.33
39 | TTGTTTTTTTCTTTTTGTACATATACAACATACATA [XGTACX_site8996] | 8.04 ± 0.6
40 | CATACACCCGGACACACACACACACCCATATATAAT [CACACA_site4494] | 8.21 ± 0.43
41 | GAAAATATATTATTTACACACATGTTCAAATTAAAA [CACACA_site3761] | 7.73 ± 0.59
42 | AAACAATTTATGTGTAGTACATGTTGGAGATAATTT [XGTACX_site6000] | 8.02 ± 0.51
43 | TATTAAATATAAGTCACACATAATTTTTCGTCCTTT [CACACA_site5065] | 7.57 ± 0.64
